The supplement of paper PMC11876631
± gives the standard deviation of the averaged measurements. Laboratory Escherichia coli strains with one amino-acid change in an essential protein, pooled on minimal glucose agar with carbenicillin or gentamicin at twice the control MIC (plus kanamycin and chloramphenicol for the plasmids), 48 h. Fold change of barcode share against drug-free plates; higher = less susceptible. Active = above 20 in both replicates (the paper's putatively resistant). '<' = one read or none on drug, '>' = one read or none on a drug-free plate. Shares are relative, so most strains fall below 1 when a few take over. Listed are strains with at least 15 reads on both drug-free plates, and hits; most hits rest on fewer reference reads. Replicate rank correlation about 0.5. Edits are read from barcodes.

B1: metL V462Q (protein)
chain: MSVIAQAGAKGRQLHKFGGSSLADVKCYLRVAGIMAEYSQPDDMMVVSAAGSTTNQLINWLKLSQTDRLSAHQVQQTLRRYQCDLISGLLPAEEADSLISAFVSDLERLAALLDSGINDAVYAEVVGHGEVWSARLMSAVLNQQGLPAAWLDAREFLRAERAAQPQVDEGLSYPLLQQLLVQHPGKRLVVTGFISRNNAGETVLLGRNGSDYSATQIGALAGVSRVTIWSDVAGVYSADPRKVKDACLLPLLRLDEASELARLAAPVLHARTLQPVSGSEIDLQLRCSYTPDQGSTRIERVLASGTGARIVTSHDDVCLIEFQVPASQDFKLAHKEIDQILKRAQVRPLAVGVHNDRQLLQFCYTSEVADSALKILDEAGLPGELRLRQGLALVAMVGAGVTRNPLHCHRFWQQLKGQPVEFTWQSDDGISLVAVLRTGPTESLIQGLHQSVFRAEKRIGLQLFGKGNIGSRWLELFAREQSTLSARTGFEFVLAGVVDSRRSLLSYDGLDASRALAFFNDEAVEQDEESLFLWMRAHPYDDLVVLDVTASQQLADQYLDFASHGFHVISANKLAGASDSNKYRQIHDAFEKTGRHWLYNATVGAGLPINHTVRDLIDSGDTILSISGIFSGTLSWLFLQFDGSVPFTELVDQAWQQGLTEPDPRDDLSGKDVMRKLVILAREAGYNIEPDQVRVESLVPAHCEGGSIDHFFENGDELNEQMVQRLEAAREMGLVLRYVARFDANGKARVGVEAVREDHPLASLLPCDNVFAIESRWYRDNPLVIRGPGAGRDVTAGAIQSDINRLAQLL
B2: metL V462D (protein)
chain: MSVIAQAGAKGRQLHKFGGSSLADVKCYLRVAGIMAEYSQPDDMMVVSAAGSTTNQLINWLKLSQTDRLSAHQVQQTLRRYQCDLISGLLPAEEADSLISAFVSDLERLAALLDSGINDAVYAEVVGHGEVWSARLMSAVLNQQGLPAAWLDAREFLRAERAAQPQVDEGLSYPLLQQLLVQHPGKRLVVTGFISRNNAGETVLLGRNGSDYSATQIGALAGVSRVTIWSDVAGVYSADPRKVKDACLLPLLRLDEASELARLAAPVLHARTLQPVSGSEIDLQLRCSYTPDQGSTRIERVLASGTGARIVTSHDDVCLIEFQVPASQDFKLAHKEIDQILKRAQVRPLAVGVHNDRQLLQFCYTSEVADSALKILDEAGLPGELRLRQGLALVAMVGAGVTRNPLHCHRFWQQLKGQPVEFTWQSDDGISLVAVLRTGPTESLIQGLHQSVFRAEKRIGLDLFGKGNIGSRWLELFAREQSTLSARTGFEFVLAGVVDSRRSLLSYDGLDASRALAFFNDEAVEQDEESLFLWMRAHPYDDLVVLDVTASQQLADQYLDFASHGFHVISANKLAGASDSNKYRQIHDAFEKTGRHWLYNATVGAGLPINHTVRDLIDSGDTILSISGIFSGTLSWLFLQFDGSVPFTELVDQAWQQGLTEPDPRDDLSGKDVMRKLVILAREAGYNIEPDQVRVESLVPAHCEGGSIDHFFENGDELNEQMVQRLEAAREMGLVLRYVARFDANGKARVGVEAVREDHPLASLLPCDNVFAIESRWYRDNPLVIRGPGAGRDVTAGAIQSDINRLAQLL
B3: metL V462P (protein)
chain: MSVIAQAGAKGRQLHKFGGSSLADVKCYLRVAGIMAEYSQPDDMMVVSAAGSTTNQLINWLKLSQTDRLSAHQVQQTLRRYQCDLISGLLPAEEADSLISAFVSDLERLAALLDSGINDAVYAEVVGHGEVWSARLMSAVLNQQGLPAAWLDAREFLRAERAAQPQVDEGLSYPLLQQLLVQHPGKRLVVTGFISRNNAGETVLLGRNGSDYSATQIGALAGVSRVTIWSDVAGVYSADPRKVKDACLLPLLRLDEASELARLAAPVLHARTLQPVSGSEIDLQLRCSYTPDQGSTRIERVLASGTGARIVTSHDDVCLIEFQVPASQDFKLAHKEIDQILKRAQVRPLAVGVHNDRQLLQFCYTSEVADSALKILDEAGLPGELRLRQGLALVAMVGAGVTRNPLHCHRFWQQLKGQPVEFTWQSDDGISLVAVLRTGPTESLIQGLHQSVFRAEKRIGLPLFGKGNIGSRWLELFAREQSTLSARTGFEFVLAGVVDSRRSLLSYDGLDASRALAFFNDEAVEQDEESLFLWMRAHPYDDLVVLDVTASQQLADQYLDFASHGFHVISANKLAGASDSNKYRQIHDAFEKTGRHWLYNATVGAGLPINHTVRDLIDSGDTILSISGIFSGTLSWLFLQFDGSVPFTELVDQAWQQGLTEPDPRDDLSGKDVMRKLVILAREAGYNIEPDQVRVESLVPAHCEGGSIDHFFENGDELNEQMVQRLEAAREMGLVLRYVARFDANGKARVGVEAVREDHPLASLLPCDNVFAIESRWYRDNPLVIRGPGAGRDVTAGAIQSDINRLAQLL
B4: metL F638A (protein)
chain: MSVIAQAGAKGRQLHKFGGSSLADVKCYLRVAGIMAEYSQPDDMMVVSAAGSTTNQLINWLKLSQTDRLSAHQVQQTLRRYQCDLISGLLPAEEADSLISAFVSDLERLAALLDSGINDAVYAEVVGHGEVWSARLMSAVLNQQGLPAAWLDAREFLRAERAAQPQVDEGLSYPLLQQLLVQHPGKRLVVTGFISRNNAGETVLLGRNGSDYSATQIGALAGVSRVTIWSDVAGVYSADPRKVKDACLLPLLRLDEASELARLAAPVLHARTLQPVSGSEIDLQLRCSYTPDQGSTRIERVLASGTGARIVTSHDDVCLIEFQVPASQDFKLAHKEIDQILKRAQVRPLAVGVHNDRQLLQFCYTSEVADSALKILDEAGLPGELRLRQGLALVAMVGAGVTRNPLHCHRFWQQLKGQPVEFTWQSDDGISLVAVLRTGPTESLIQGLHQSVFRAEKRIGLVLFGKGNIGSRWLELFAREQSTLSARTGFEFVLAGVVDSRRSLLSYDGLDASRALAFFNDEAVEQDEESLFLWMRAHPYDDLVVLDVTASQQLADQYLDFASHGFHVISANKLAGASDSNKYRQIHDAFEKTGRHWLYNATVGAGLPINHTVRDLIDSGDTILSISGIFSGTLSWLALQFDGSVPFTELVDQAWQQGLTEPDPRDDLSGKDVMRKLVILAREAGYNIEPDQVRVESLVPAHCEGGSIDHFFENGDELNEQMVQRLEAAREMGLVLRYVARFDANGKARVGVEAVREDHPLASLLPCDNVFAIESRWYRDNPLVIRGPGAGRDVTAGAIQSDINRLAQLL
B5: metL F638W (protein)
chain: MSVIAQAGAKGRQLHKFGGSSLADVKCYLRVAGIMAEYSQPDDMMVVSAAGSTTNQLINWLKLSQTDRLSAHQVQQTLRRYQCDLISGLLPAEEADSLISAFVSDLERLAALLDSGINDAVYAEVVGHGEVWSARLMSAVLNQQGLPAAWLDAREFLRAERAAQPQVDEGLSYPLLQQLLVQHPGKRLVVTGFISRNNAGETVLLGRNGSDYSATQIGALAGVSRVTIWSDVAGVYSADPRKVKDACLLPLLRLDEASELARLAAPVLHARTLQPVSGSEIDLQLRCSYTPDQGSTRIERVLASGTGARIVTSHDDVCLIEFQVPASQDFKLAHKEIDQILKRAQVRPLAVGVHNDRQLLQFCYTSEVADSALKILDEAGLPGELRLRQGLALVAMVGAGVTRNPLHCHRFWQQLKGQPVEFTWQSDDGISLVAVLRTGPTESLIQGLHQSVFRAEKRIGLVLFGKGNIGSRWLELFAREQSTLSARTGFEFVLAGVVDSRRSLLSYDGLDASRALAFFNDEAVEQDEESLFLWMRAHPYDDLVVLDVTASQQLADQYLDFASHGFHVISANKLAGASDSNKYRQIHDAFEKTGRHWLYNATVGAGLPINHTVRDLIDSGDTILSISGIFSGTLSWLWLQFDGSVPFTELVDQAWQQGLTEPDPRDDLSGKDVMRKLVILAREAGYNIEPDQVRVESLVPAHCEGGSIDHFFENGDELNEQMVQRLEAAREMGLVLRYVARFDANGKARVGVEAVREDHPLASLLPCDNVFAIESRWYRDNPLVIRGPGAGRDVTAGAIQSDINRLAQLL
B6: metL F638Q (protein)
chain: MSVIAQAGAKGRQLHKFGGSSLADVKCYLRVAGIMAEYSQPDDMMVVSAAGSTTNQLINWLKLSQTDRLSAHQVQQTLRRYQCDLISGLLPAEEADSLISAFVSDLERLAALLDSGINDAVYAEVVGHGEVWSARLMSAVLNQQGLPAAWLDAREFLRAERAAQPQVDEGLSYPLLQQLLVQHPGKRLVVTGFISRNNAGETVLLGRNGSDYSATQIGALAGVSRVTIWSDVAGVYSADPRKVKDACLLPLLRLDEASELARLAAPVLHARTLQPVSGSEIDLQLRCSYTPDQGSTRIERVLASGTGARIVTSHDDVCLIEFQVPASQDFKLAHKEIDQILKRAQVRPLAVGVHNDRQLLQFCYTSEVADSALKILDEAGLPGELRLRQGLALVAMVGAGVTRNPLHCHRFWQQLKGQPVEFTWQSDDGISLVAVLRTGPTESLIQGLHQSVFRAEKRIGLVLFGKGNIGSRWLELFAREQSTLSARTGFEFVLAGVVDSRRSLLSYDGLDASRALAFFNDEAVEQDEESLFLWMRAHPYDDLVVLDVTASQQLADQYLDFASHGFHVISANKLAGASDSNKYRQIHDAFEKTGRHWLYNATVGAGLPINHTVRDLIDSGDTILSISGIFSGTLSWLQLQFDGSVPFTELVDQAWQQGLTEPDPRDDLSGKDVMRKLVILAREAGYNIEPDQVRVESLVPAHCEGGSIDHFFENGDELNEQMVQRLEAAREMGLVLRYVARFDANGKARVGVEAVREDHPLASLLPCDNVFAIESRWYRDNPLVIRGPGAGRDVTAGAIQSDINRLAQLL
B7: metL F638D (protein)
chain: MSVIAQAGAKGRQLHKFGGSSLADVKCYLRVAGIMAEYSQPDDMMVVSAAGSTTNQLINWLKLSQTDRLSAHQVQQTLRRYQCDLISGLLPAEEADSLISAFVSDLERLAALLDSGINDAVYAEVVGHGEVWSARLMSAVLNQQGLPAAWLDAREFLRAERAAQPQVDEGLSYPLLQQLLVQHPGKRLVVTGFISRNNAGETVLLGRNGSDYSATQIGALAGVSRVTIWSDVAGVYSADPRKVKDACLLPLLRLDEASELARLAAPVLHARTLQPVSGSEIDLQLRCSYTPDQGSTRIERVLASGTGARIVTSHDDVCLIEFQVPASQDFKLAHKEIDQILKRAQVRPLAVGVHNDRQLLQFCYTSEVADSALKILDEAGLPGELRLRQGLALVAMVGAGVTRNPLHCHRFWQQLKGQPVEFTWQSDDGISLVAVLRTGPTESLIQGLHQSVFRAEKRIGLVLFGKGNIGSRWLELFAREQSTLSARTGFEFVLAGVVDSRRSLLSYDGLDASRALAFFNDEAVEQDEESLFLWMRAHPYDDLVVLDVTASQQLADQYLDFASHGFHVISANKLAGASDSNKYRQIHDAFEKTGRHWLYNATVGAGLPINHTVRDLIDSGDTILSISGIFSGTLSWLDLQFDGSVPFTELVDQAWQQGLTEPDPRDDLSGKDVMRKLVILAREAGYNIEPDQVRVESLVPAHCEGGSIDHFFENGDELNEQMVQRLEAAREMGLVLRYVARFDANGKARVGVEAVREDHPLASLLPCDNVFAIESRWYRDNPLVIRGPGAGRDVTAGAIQSDINRLAQLL

target: Escherichia coli (laboratory strain); test: barcode share on antibiotic plates over drug-free plates; higher = less susceptible; conditions: antibiotic: carbenicillin; 2× MIC (3.1 µg/mL)
Procedure: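 A pool of E. coli strains, each edited to carry one amino-acid change in an essential protein, was grown for 48 h on minimal glucose agar with or without antibiotic; strain barcodes were sequenced; mean of two replicates.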

Protein	fold change of barcode share
B1	0.633 ± 0.18
B2	0.708 ± 0.2
B3	0.615 ± 0.11
B4	0.481 ± 0.097
B5	0.49 ± 0.1
B6	0.585 ± 0.1
B7	0.593 ± 0.084

same assay, conditions: antibiotic: gentamicin; 2× MIC (MIC 0.45 µg/mL)

Protein	fold change of barcode share
B1	0.0106 ± 0.002
B2	0.0117 ± 0.0094
B3	0.0079 ± 0.00097
B4	0.0158 ± 0.015
B5	0.00782 ± 0.009
B6	0.00895 ± 0.0068
B7	0.0139 ± 0.0022
